Reference: the supplement of paper PMC6531468
Some of the results follow. These are enrichments in a pooled selection; single values are uncertain. Each score is taken over the longer molecules that contain the sequence shown.

Assays:
Assay in all cases: 6-mer SELEX enrichment z-score vs GST control; IMP3 is the RNA-binding protein IGF2BP3; higher = more enriched by binding
IMP3 KH3-4 = details: construct: KH3-4 (377-579); SELEX round: R4
Procedure: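 SELEX-seq with GST-tagged IMP3 KH3-4 (Pro377-Lys579) and an N40 RNA pool, round 4. 6-mer z-score of sequence-tag enrichment normalised to the corresponding GST SELEX round; RNA k-mers written as DNA (T for U).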

IMP3 full-length = IMP3 full-length (UniProt O00425); details: construct: FL IMP3 (1-579); SELEX round: R4
Procedure: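 SELEX-seq with GST-tagged full-length IMP3 and an N40 RNA pool, round 4. Each 6-mer is scored as an enrichment z-score of sequence tags containing it, normalised to the matching GST SELEX round. RNA written as DNA (T = U).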

IMP3 KH1-2 = details: construct: KH1-2 (164-376); SELEX round: R4
Procedure: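 SELEX-seq with GST-tagged IMP3 KH1-2 (Pro164-Phe376) and an N40 RNA pool, round 4 (stringent 300/600 mM KCl washes). 6-mer z-score of sequence-tag enrichment normalised to the corresponding GST SELEX round; RNA k-mers written as DNA (T for U).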

Chain of IMP3 KH1-2 (chain, as listed by the source): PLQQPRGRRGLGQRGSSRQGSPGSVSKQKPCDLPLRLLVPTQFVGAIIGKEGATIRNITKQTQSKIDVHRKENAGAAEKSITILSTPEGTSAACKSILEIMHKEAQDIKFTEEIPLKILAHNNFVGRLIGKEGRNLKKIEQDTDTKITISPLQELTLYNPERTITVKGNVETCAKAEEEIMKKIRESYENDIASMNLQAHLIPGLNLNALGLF
Chain of IMP3 KH3-4 (chain, as listed by the source): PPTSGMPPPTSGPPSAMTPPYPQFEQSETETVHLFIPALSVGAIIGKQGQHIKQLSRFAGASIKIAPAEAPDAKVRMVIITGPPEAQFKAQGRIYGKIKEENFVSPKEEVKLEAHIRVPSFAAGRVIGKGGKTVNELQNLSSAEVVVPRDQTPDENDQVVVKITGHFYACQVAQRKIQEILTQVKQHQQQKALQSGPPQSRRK
Chain of UniProt O00425 (O00425 whole entry): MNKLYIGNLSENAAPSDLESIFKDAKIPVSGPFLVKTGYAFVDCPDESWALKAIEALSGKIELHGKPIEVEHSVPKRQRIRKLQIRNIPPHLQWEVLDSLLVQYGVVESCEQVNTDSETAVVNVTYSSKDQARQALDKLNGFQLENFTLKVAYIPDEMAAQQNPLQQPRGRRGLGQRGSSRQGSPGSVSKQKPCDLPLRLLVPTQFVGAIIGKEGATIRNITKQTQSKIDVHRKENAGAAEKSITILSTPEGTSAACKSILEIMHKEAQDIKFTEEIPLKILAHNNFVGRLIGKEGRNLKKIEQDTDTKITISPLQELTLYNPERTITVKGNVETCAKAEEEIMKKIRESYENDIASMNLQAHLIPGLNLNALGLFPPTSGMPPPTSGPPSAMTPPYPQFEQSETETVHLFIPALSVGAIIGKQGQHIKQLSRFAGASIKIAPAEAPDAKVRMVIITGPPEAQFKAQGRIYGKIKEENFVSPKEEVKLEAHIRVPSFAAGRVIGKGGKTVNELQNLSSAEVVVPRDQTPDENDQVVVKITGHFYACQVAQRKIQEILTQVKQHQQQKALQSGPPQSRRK

Sequence	6-mer SELEX enrichment z-score (IMP3 KH3-4)	6-mer SELEX enrichment z-score (IMP3 full-length)	6-mer SELEX enrichment z-score (IMP3 KH1-2)
CATACA	2.22		
GGATAC	0.091	-0.049	-0.016
TTTGTA	0.52	-0.083	
ATGCAT	0.881	0.911	0.732
ATAAGA	2.4	-0.196	1.24
GGGCGT		-0.621	-1.46
GTTTGC	-0.137	-0.125	
CTTCGC	-0.25	-0.04	0.005
TCGTGA	-0.064	-0.197	-0.23
AATCCG	-0.861	-0.53	-0.119
TCGTAA	-0.247	-0.416	-0.422
TTGACG	-0.775		
CACCTC	-1.18	-0.322	-0.613
TTAGCG	-0.276	-0.368	-0.554
TGTTAC	0.008	-0.135	-0.013
CATTCA	1.27		2.08
TTGGTT	0.2	0.141	0.059
